Experimental data published in the supplement of paper PMC4604168 (melanoma cell lines).
The other results are listed elsewhere or left out. Many values rest on one well or one pass, so single values are uncertain.

How the values were obtained:
Assay in all cases: cell count relative to DMSO control; melanoma cells; higher = more viable cells
Conditions in all cases: library dose: standard library concentration; 72 h
[1] = test system: G361
[2] = test system: IPC-298
[3] = test system: IST-MEL1
[4] = test system: LB2518-MEL
[5] = test system: LOXIMVI
[6] = test system: MEL-HO
[7] = test system: MZ2-MEL
[8] = test system: MeWo
[9] = test system: RPMI7951
[10] = test system: RVH-421
[11] = test system: SkMel28
[12] = test system: SkMel2
[13] = test system: SkMel30
[14] = test system: SkMel5
[15] = test system: UACC257
[16] = test system: UACC62
[17] = test system: WM115
[18] = test system: WM1716
[19] = test system: WM1745
[20] = test system: WM3526
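Note: cells treated in 1,536-well plates, then fixed and DAPI-stained, with nuclei counted from automated high-throughput microscope images.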

CC(=O)c1c(C)c2cnc(Nc3ccc(N4CCNCC4)cn3)nc2n(C2CCCC2)c1=O [palbociclib] + COc1cc2c(Oc3ccc4[nH]c(C)cc4c3F)ncnc2cc1OCCCN1CCCC1 [cediranib] (first compound 0.2 µM, partner dose 2 µM)
cell count [1]: 75.9%
cell count [2]: 82.3%
cell count [3]: 72.5%
cell count [4]: 58%
cell count [5]: 65.1%
cell count [6]: 86.8%
cell count [7]: 83.6%
cell count [8]: 53.5%
cell count [9]: 61.8%
cell count [10]: 63.6%
cell count [11]: 46.5%
cell count [12]: 52.7%
cell count [13]: 87.2%
cell count [14]: 66.5%
cell count [15]: 84.7%
cell count [16]: 52.4%
cell count [17]: 65.9%
cell count [18]: 54.8%
cell count [19]: 77.9%
cell count [20]: 48.9%

Nc1nc(F)nc2c1ncn2[C@@H]1O[C@H](CO)[C@@H](O)[C@@H]1O [fludarabine] + CC(=O)c1c(C)c2cnc(Nc3ccc(N4CCNCC4)cn3)nc2n(C2CCCC2)c1=O [palbociclib] (first compound 1 µM, partner dose 0.2 µM)
cell count [1]: 68%
cell count [2]: 55.5%
cell count [3]: 60.4%
cell count [4]: 68.7%
cell count [5]: 66.5%
cell count [6]: 65.4%
cell count [7]: 65.3%
cell count [8]: 65.3%
cell count [9]: 66.4%
cell count [10]: 75.1%
cell count [11]: 1.57%
cell count [12]: 1.29%
cell count [13]: 18.5%
cell count [14]: 24.2%
cell count [15]: 30.6%
cell count [16]: 57.3%
cell count [17]: 62.4%
cell count [18]: 49.6%
cell count [19]: 71.2%
cell count [20]: 28.8%

CC(=O)O[C@@]12CO[C@@H]1C[C@H](O)[C@@]1(C)C(=O)[C@H](O)C3=C(C)[C@@H](OC(=O)[C@H](O)[C@@H](NC(=O)OC(C)(C)C)c4ccccc4)C[C@@](O)([C@@H](OC(=O)c4ccccc4)[C@H]21)C3(C)C [Docetaxel] + O=C(O)c1ccc(-c2c[nH]c3ncc(-c4ccccc4)cc23)cc1C1CCCC1 [GSK650394] (first compound 0.0005 µM, partner dose 0.8 µM)
cell count [1]: 14.7%
cell count [2]: 37.1%
cell count [3]: 39.1%
cell count [4]: 40.5%
cell count [5]: 61.8%
cell count [6]: 51.6%
cell count [7]: 45.7%
cell count [8]: 32.6%
cell count [9]: 22.1%
cell count [10]: 52.9%
cell count [11]: 22.5%
cell count [12]: 19.9%
cell count [13]: 49.9%
cell count [14]: 29%
cell count [15]: 64.1%
cell count [16]: 55.8%
cell count [17]: 42.9%
cell count [18]: 34.4%
cell count [19]: 33.9%
cell count [20]: 40.7%

CC(=O)O[C@@]12CO[C@@H]1C[C@H](O)[C@@]1(C)C(=O)[C@H](O)C3=C(C)[C@@H](OC(=O)[C@H](O)[C@@H](NC(=O)OC(C)(C)C)c4ccccc4)C[C@@](O)([C@@H](OC(=O)c4ccccc4)[C@H]21)C3(C)C [Docetaxel] + OCc1c[nH]c2ccccc12 [Indole-3-carbinol] (first compound 0.0005 µM, partner dose 4 µM)
cell count [1]: 19.6%
cell count [2]: 31.5%
cell count [3]: 35.3%
cell count [4]: 51.7%
cell count [5]: 49.4%
cell count [6]: 49.8%
cell count [7]: 46%
cell count [8]: 31.2%
cell count [9]: 27.3%
cell count [10]: 62.5%
cell count [11]: 16.3%
cell count [12]: 18.9%
cell count [13]: 38.9%
cell count [14]: 48.8%
cell count [15]: 63.5%
cell count [16]: 69.8%
cell count [17]: 42.2%
cell count [18]: 31.3%
cell count [19]: 49.2%
cell count [20]: 56.6%

Nc1nc(F)nc2c1ncn2[C@@H]1O[C@H](CO)[C@@H](O)[C@@H]1O [fludarabine] + O=C(Nc1cccc(Cl)c1)Nc1ncc(CCNc2ncnc3ccsc23)s1 [SNS314] (first compound 1 µM, partner dose 0.004 µM)
cell count [1]: 62.9%
cell count [2]: 62.5%
cell count [3]: 46.4%
cell count [4]: 73.6%
cell count [5]: 74.3%
cell count [6]: 73.2%
cell count [7]: 78.9%
cell count [8]: 73.2%
cell count [9]: 58%
cell count [10]: 59%
cell count [11]: 3.01%
cell count [12]: 2.37%
cell count [13]: 22.5%
cell count [14]: 24.5%
cell count [15]: 36.3%
cell count [16]: 73.9%
cell count [17]: 48.6%
cell count [18]: 55.4%
cell count [19]: 62.3%
cell count [20]: 26.8%

CC(=O)O[C@@]12CO[C@@H]1C[C@H](O)[C@@]1(C)C(=O)[C@H](O)C3=C(C)[C@@H](OC(=O)[C@H](O)[C@@H](NC(=O)OC(C)(C)C)c4ccccc4)C[C@@](O)([C@@H](OC(=O)c4ccccc4)[C@H]21)C3(C)C [Docetaxel] + NC(=O)Nc1cc(-c2cccc(F)c2)sc1C(=O)N[C@H]1CCCNC1 [AZD7762] (first compound 0.0005 µM, partner dose 0.1 µM)
cell count [1]: 14.7%
cell count [2]: 40%
cell count [3]: 28%
cell count [4]: 42.3%
cell count [5]: 42.1%
cell count [6]: 35.8%
cell count [7]: 46.2%
cell count [8]: 27.9%
cell count [9]: 17.4%
cell count [10]: 69.9%
cell count [11]: 23.1%
cell count [12]: 17.8%
cell count [13]: 52.7%
cell count [14]: 38.4%
cell count [15]: 58.2%
cell count [16]: 65.9%
cell count [17]: 46.9%
cell count [18]: 36.8%
cell count [19]: 33.2%
cell count [20]: 29.7%

Nc1nc(F)nc2c1ncn2[C@@H]1O[C@H](CO)[C@@H](O)[C@@H]1O [fludarabine] + COc1cc(Nc2ncc(F)c(Nc3ccc4c(n3)NC(=O)C(C)(C)O4)n2)cc(OC)c1OC [Tamatinib] (first compound 1 µM, partner dose 2 µM)
cell count [1]: 77.9%
cell count [2]: 78.8%
cell count [3]: 56%
cell count [4]: 79.5%
cell count [5]: 28.1%
cell count [6]: 65.7%
cell count [7]: 101%
cell count [8]: 67.7%
cell count [9]: 25.5%
cell count [10]: 82%
cell count [11]: 6.15%
cell count [12]: 3.64%
cell count [13]: 12.3%
cell count [14]: 53.9%
cell count [15]: 34.3%
cell count [16]: 83.7%
cell count [17]: 67.7%
cell count [18]: 102%
cell count [19]: 44.4%
cell count [20]: 26.5%

Nc1nc(F)nc2c1ncn2[C@@H]1O[C@H](CO)[C@@H](O)[C@@H]1O [fludarabine] + CC(C)(C)c1cnc(CSc2cnc(NC(=O)C3CCNCC3)s2)o1 [SNS-032] (first compound 1 µM, partner dose 0.05 µM)
cell count [1]: 104%
cell count [2]: 98.2%
cell count [3]: 69%
cell count [4]: 80.7%
cell count [5]: 69.4%
cell count [6]: 81.4%
cell count [7]: 107%
cell count [8]: 97.8%
cell count [9]: 22.2%
cell count [10]: 92.7%
cell count [11]: 0.347%
cell count [12]: 0.629%
cell count [13]: 21.4%
cell count [14]: 29.1%
cell count [15]: 31.6%
cell count [16]: 67.1%
cell count [17]: 91.7%
cell count [18]: 92.9%
cell count [19]: 87.1%
cell count [20]: 27.1%

Nc1nc(F)nc2c1ncn2[C@@H]1O[C@H](CO)[C@@H](O)[C@@H]1O [fludarabine] + C[C@]1(c2nc3c(C(N)=O)cccc3[nH]2)CCCN1 [Veliparib] (first compound 1 µM, partner dose 7 µM)
cell count [1]: 76.7%
cell count [2]: 88.9%
cell count [3]: 76.4%
cell count [4]: 92%
cell count [5]: 70.6%
cell count [6]: 92.2%
cell count [7]: 96.7%
cell count [8]: 110%
cell count [9]: 51.3%
cell count [10]: 83.2%
cell count [11]: 2.31%
cell count [12]: 1.46%
cell count [13]: 17.7%
cell count [14]: 27.7%
cell count [15]: 33.8%
cell count [16]: 38.5%
cell count [17]: 68%
cell count [18]: 86.8%
cell count [19]: 76.7%
cell count [20]: 23.3%

Nc1ccn([C@@H]2O[C@H](CO)[C@@H](O)C2(F)F)c(=O)n1 [gemcitabine] + Cc1nc(Nc2ncc(C(=O)Nc3c(C)cccc3Cl)s2)cc(N2CCN(CCO)CC2)n1 [dasatanib] (first compound 0.002 µM, partner dose 0.02 µM)
cell count [1]: 33.5%
cell count [2]: 53.1%
cell count [3]: 39.3%
cell count [4]: 63.8%
cell count [5]: 29.3%
cell count [6]: 49.5%
cell count [7]: 58.3%
cell count [8]: 40.3%
cell count [9]: 40.3%
cell count [10]: 106%
cell count [11]: 89.7%
cell count [12]: 105%
cell count [13]: 103%
cell count [14]: 72.6%
cell count [15]: 78.8%
cell count [16]: 65.2%
cell count [17]: 50.8%
cell count [18]: 50.1%
cell count [19]: 35.7%
cell count [20]: 105%

Nc1nc(F)nc2c1ncn2[C@@H]1O[C@H](CO)[C@@H](O)[C@@H]1O [fludarabine] + O=C(CCCCCCC(=O)Nc1ccccc1)NO [vorinostat] (first compound 1 µM, partner dose 0.4 µM)
cell count [1]: 73.1%
cell count [2]: 81.2%
cell count [3]: 68.4%
cell count [4]: 93.1%
cell count [5]: 76.1%
cell count [6]: 84.8%
cell count [7]: 104%
cell count [8]: 83.6%
cell count [9]: 34.9%
cell count [10]: 88.2%
cell count [11]: 2.46%
cell count [12]: 0.994%
cell count [13]: 16.7%
cell count [14]: 26.5%
cell count [15]: 24.5%
cell count [16]: 56.4%
cell count [17]: 80.5%
cell count [18]: 84.7%
cell count [19]: 96.6%
cell count [20]: 24.7%

CC(=O)O[C@@]12CO[C@@H]1C[C@H](O)[C@@]1(C)C(=O)[C@H](O)C3=C(C)[C@@H](OC(=O)[C@H](O)[C@@H](NC(=O)OC(C)(C)C)c4ccccc4)C[C@@](O)([C@@H](OC(=O)c4ccccc4)[C@H]21)C3(C)C [Docetaxel] + Cn1nnc2c(C(N)=O)ncn2c1=O [temozolomide] (first compound 0.0005 µM, partner dose 10 µM)
cell count [1]: 23.8%
cell count [2]: 35.2%
cell count [3]: 46.9%
cell count [4]: 42.4%
cell count [5]: 59.6%
cell count [6]: 40.5%
cell count [7]: 37%
cell count [8]: 21.6%
cell count [9]: 15.6%
cell count [10]: 42.5%
cell count [11]: 13.5%
cell count [12]: 15.1%
cell count [13]: 36.4%
cell count [14]: 29%
cell count [15]: 48.6%
cell count [16]: 47.2%
cell count [17]: 31.6%
cell count [18]: 31%
cell count [19]: 28.8%
cell count [20]: 35.7%

Nc1nc(F)nc2c1ncn2[C@@H]1O[C@H](CO)[C@@H](O)[C@@H]1O [fludarabine] + OCc1c[nH]c2ccccc12 [Indole-3-carbinol] (first compound 1 µM, partner dose 4 µM)
cell count [1]: 76.9%
cell count [2]: 62.3%
cell count [3]: 76.6%
cell count [4]: 70.8%
cell count [5]: 79.9%
cell count [6]: 71.5%
cell count [7]: 79.6%
cell count [8]: 94.5%
cell count [9]: 70%
cell count [10]: 59.8%
cell count [11]: 1.37%
cell count [12]: 0.524%
cell count [13]: 19.7%
cell count [14]: 25.2%
cell count [15]: 35.5%
cell count [16]: 60.8%
cell count [17]: 84.9%
cell count [18]: 97.8%
cell count [19]: 74.6%
cell count [20]: 22.7%

Nc1ncn([C@H]2C[C@H](O)[C@@H](CO)O2)c(=O)n1 [decitabine] + COc1cc2c(Oc3ccc4[nH]c(C)cc4c3F)ncnc2cc1OCCCN1CCCC1 [cediranib] (first compound 0.5 µM, partner dose 2 µM)
cell count [1]: 84.4%
cell count [2]: 71%
cell count [3]: 86.6%
cell count [4]: 84.7%
cell count [5]: 61.4%
cell count [6]: 78.7%
cell count [7]: 86.6%
cell count [8]: 78.6%
cell count [9]: 104%
cell count [10]: 416%
cell count [11]: 105%
cell count [12]: 88.3%
cell count [13]: 92.5%
cell count [14]: 74.3%
cell count [15]: 96.5%
cell count [16]: 86.7%
cell count [17]: 84.1%
cell count [18]: 108%
cell count [19]: 99.6%
cell count [20]: 78.4%

Nc1ccn([C@@H]2O[C@H](CO)[C@@H](O)C2(F)F)c(=O)n1 [gemcitabine] + Nc1cccc2c1CN(C1CCC(=O)NC1=O)C2=O [lenalidomide] (first compound 0.002 µM, partner dose 5 µM)
cell count [1]: 41%
cell count [2]: 41.2%
cell count [3]: 39.5%
cell count [4]: 60.2%
cell count [5]: 84.7%
cell count [6]: 58.4%
cell count [7]: 85%
cell count [8]: 35.6%
cell count [9]: 45.3%
cell count [10]: 34%
cell count [11]: 86%
cell count [12]: 93.5%
cell count [13]: 106%
cell count [14]: 92.8%
cell count [15]: 102%
cell count [16]: 73.2%
cell count [17]: 67.6%
cell count [18]: 67%
cell count [19]: 41.8%
cell count [20]: 83.4%
